Measured values published in PubChem BioAssay AID2147 (National Center for Advancing Translational Sciences (NCATS), 2009).
The whole screen tested about 230,000 compounds, of which about 3,600 (1.6%) were called active. Inconclusive means that the source gave no clear call. Such entries were picked first, then a sample of the others. Calls follow the shape of the dose curve; as a rule, active = well fitted inhibition curve with a large enough effect (not every such curve was filed as active); inconclusive = small, poorly fitted or top-dose-only effect, or another doubt; inactive = no such curve, though single readings can be large or run the other way. A potency beside an inconclusive call is a rough fit, not a confirmed value.

Target: Lysine-specific demethylase 4E (Homo sapiens) (UniProt B2RXH2)
Experiment: qHTS Assay for Inhibitors of Human Jumonji Domain Containing 2E (JMJD2E)
Details: JMJD2E catalytic domain, FDH-coupled NADH fluorescence (FDH is formaldehyde dehydrogenase); series mostly up to 57.1 µM
Also: nearly all actives have a fitted effect of over 50% in size.
Potency is read from the fitted curve at half-maximal effect; tags tell the direction and shape of the fitted curve.

Chain of UniProt B2RXH2 (B2RXH2 whole entry, looked up, the tested form may be a part): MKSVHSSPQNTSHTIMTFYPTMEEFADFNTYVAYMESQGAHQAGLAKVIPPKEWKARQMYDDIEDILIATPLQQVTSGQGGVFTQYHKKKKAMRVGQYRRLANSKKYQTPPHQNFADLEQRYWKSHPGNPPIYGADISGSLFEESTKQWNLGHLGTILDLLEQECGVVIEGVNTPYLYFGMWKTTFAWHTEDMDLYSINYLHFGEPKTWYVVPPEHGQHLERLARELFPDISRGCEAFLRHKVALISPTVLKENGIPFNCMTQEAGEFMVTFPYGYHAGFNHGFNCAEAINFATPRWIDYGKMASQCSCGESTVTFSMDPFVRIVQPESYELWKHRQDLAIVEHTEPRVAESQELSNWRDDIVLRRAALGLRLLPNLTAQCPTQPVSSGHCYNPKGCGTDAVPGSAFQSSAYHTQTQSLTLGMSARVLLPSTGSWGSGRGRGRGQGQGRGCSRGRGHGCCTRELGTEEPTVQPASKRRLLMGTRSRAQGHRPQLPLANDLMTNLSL

SMILES | Potency
CC(=O)Nc1cccc(C(=O)O)n1 | inconclusive: 35.5 µM [inhibitor, single point]
COc1nc(N)c(S(=O)(=O)c2ccccc2C)cc1C#N | inconclusive: 31.6 µM [inhibitor, single point]
COc1ccc(-n2c(-c3ccco3)n[nH]c2=S)cc1 | inconclusive: 28.2 µM [inhibitor, single point]
Cc1cccc(CN2CCN(C(=O)CCl)CC2)c1 | inactive
COc1cccc(/C=N/NC(=O)CSc2cccc3cccnc23)c1 | inconclusive: 31.6 µM [inhibitor, partial curve]
Cc1cccc(-c2cc3nc(C)cc(NCCCn4ccnc4)n3n2)c1 | inconclusive: 25.1 µM [inhibitor, partial curve]
Cc1ccc(CC(=O)N2CCN(c3ccccn3)CC2)cc1 | inconclusive: 22.4 µM [inhibitor, partial curve]
Nc1nc(CN2CCc3ccccc3C2)nc(Nc2ccccc2)n1 | inconclusive: 39.8 µM [inhibitor, single point]
CC1CC1C(=O)OCC(=O)Nc1ccccc1Oc1ccccc1 (centres undefined) | inconclusive: 35.5 µM [inhibitor, single point]
CCOC(=O)c1nn(-c2ccccc2)c2nc(-c3ccc(OC)cc3)c(C#N)c(=O)n12 | inconclusive: 25.1 µM [inhibitor, partial curve]
CCn1c(Cc2c(C)[nH]c3ccccc23)n[nH]c1=S | inactive
Nc1ccc(C(=O)n2c3ccccc3c3ccccc32)cc1 | inactive
CCC(C)n1c(-c2cc(OC)c(OC)c(OC)c2)nc2nc3ccccc3nc21 (centres undefined) | inconclusive: 31.6 µM [inhibitor, partial curve]
CCCCC(=O)Nc1ccc(C(=O)NNC(=S)NC(=O)c2ccccc2[N+](=O)[O-])cc1 | inconclusive: 31.6 µM [inhibitor, single point]
COC(=O)c1sc2nc(N3CCCCC3)c3c(c2c1N)CCCC3 | inconclusive: 28.2 µM [inhibitor, partial curve]
O=C(Oc1ccc2c(c1)O/C(=C\c1ccncc1)C2=O)c1cccs1 | inactive
CCCCCCC(=O)Nc1nc(C)c(-c2csc(Nc3ccccc3OC)n2)s1 | inconclusive: 10 µM [inhibitor, partial curve]
COc1ccc(C2=NN3C(=O)c4c(ccc(OC)c4OC)C3C2)cc1 (centres undefined) | inactive
CCOc1ccc(-c2nnc(SCC(=O)Nc3cc(C)on3)o2)cc1 | inconclusive: 22.4 µM [inhibitor, single point]
COc1ccc(OC)c(/C=N/NC(=O)c2ccc(N(C)S(=O)(=O)c3ccccc3)cc2)c1 | inconclusive: 28.2 µM [inhibitor, partial curve]
CC(C)CCNC(=O)C(=O)NCc1ccccc1 | inactive
O=C(CNC(=O)c1ccco1)OCC(=O)c1ccc2ccccc2c1 | inconclusive: 25.1 µM [inhibitor, partial curve]

SMILES | Potency
COc1ccc(CN2CCN(S(=O)(=O)c3ccc(F)cc3)CC2)c(OC)c1OC | inconclusive: 39.8 µM [inhibitor, single point]
CS(=O)(=O)N1CCN(c2ccccc2NC(=O)c2ccc(-c3ccc(Br)cc3)o2)CC1 | inconclusive: 25.1 µM [inhibitor, partial curve]
O=C(N/N=C\c1ccc2c(c1)OCO2)c1ccc(Cn2cc(Br)c([N+](=O)[O-])n2)o1 | inconclusive: 39.8 µM [inhibitor, single point]
Cc1ccc(OCC(=O)N/N=C/c2ccc3c(c2)OCO3)cc1C | inconclusive: 39.8 µM [inhibitor, single point]
Cc1cccc(NS(=O)(=O)c2cc(C(=O)NCCC3=CCCCC3)ccc2Cl)c1 | inactive
COc1ccc2oc(C(=O)C3CC3)c(N)c2c1 | inconclusive: 31.6 µM [inhibitor, partial curve]
Cc1cc(C)nc(SCc2cc(=O)c(OC(=O)c3cccc([N+](=O)[O-])c3)co2)n1 | inconclusive: 3.98 µM [inhibitor, single point]
CCOc1c2ccc(C(=O)N[C@H](C)C3CCCCC3)cc2nn1CCOC | inconclusive: 28.2 µM [inhibitor, partial curve]
Cc1cc(C)c2nc(NCCCNC(=S)NCCCN(C)C)c(C#N)cc2c1 | inconclusive: 28.2 µM [inhibitor, partial curve]
O=C(O)CCSc1nnnn1-c1ccccc1 | inactive
C(=C\c1nccc2c1[nH]c1ccccc12)/c1ccccc1 | inconclusive: 12.6 µM [inhibitor, partial curve]
CC(=O)Oc1ccc(/C=N/NS(=O)(=O)c2ccccc2)cc1 | inconclusive: 35.5 µM [inhibitor, single point]
COc1ccc(-c2nnc(-c3ccc(Br)o3)o2)cc1OC | inconclusive: 39.8 µM [inhibitor, single point]
COc1ccc(Br)cc1/C=N/NC(=O)C(c1ccncc1)N1CCOCC1 (centres undefined) | inconclusive: 39.8 µM [inhibitor, single point]
CCOc1cc(NC(=S)Nc2ccc(Cl)cc2)c(OCC)cc1NC(C)=O | inconclusive: 28.2 µM [inhibitor, single point]
CCOC(=O)Cc1c(C)nc2c(-c3ccccc3)c(-c3ccccc3)[nH]n2c1=O | inconclusive: 31.6 µM [inhibitor, partial curve]
O=C1c2oc3ccccc3c(=O)c2C(c2cccc(O)c2)N1CCCN1CCOCC1 (centres undefined) | inactive
Cc1nc2cc(-c3cccc(F)c3)nn2c(C)c1CCC(=O)NC(C)c1ccc2c(c1)OCCO2 (centres undefined) | inconclusive: 28.2 µM [inhibitor, single point]
O=C(NC1CCCCC1)C(c1cccnc1)N(C(=O)CCl)c1ccccc1Cl (centres undefined) | inactive
CNC(=O)NC(=O)CSc1ncc(C(F)(F)F)cc1Cl | inactive
CCc1noc(C)c1C(=O)N1CCCC(C(=O)c2ccc(OC)c(F)c2)C1 (centres undefined) | inactive
O=C(NCc1ccco1)c1c2c(nc3ccccc13)CCC2 | inconclusive: 35.5 µM [inhibitor, single point]
